Test results reported in the RNAGym collection of RNA variant scans (doi:10.1073/pnas.2313332121).
Variants at the background level are over-represented here.

B1: TPR 5TU (parent)
chain: GGAUCUUCUCGAUCUAACAAAAAAGACAAAUCUGCCACAAAGCUUGAGAGCAUCUUCGGAUGCAGAGGCGGCAGCCUUCGGUGGCGCGAUAGCGCCAACGUUCUCAACUAUGACACGCAAAACGCGUGCUCCGUUGAAUGGAGUUUAUCAUG

Variants of: B1
Experiment: polymerase ribozyme fitness, log enrichment relative to wild type (log ratio); higher = more active; in vitro selection for triplet polymerase activity
Outline: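 Both subunits of a heterodimeric triplet polymerase ribozyme were given their own mutant library, built by PCR and transcribed. Each library was annealed with a biotinylated primer, the partner subunit and triplets, incubated frozen at −7 °C, and its extended constructs gel-excised, captured on streptavidin beads and amplified by RT-PCR, all in one round done in triplicate. Fitness is the logarithm of genotype enrichment relative to wild-type enrichment, with replicates averaged by inverse-variance weighting. That logarithm is base 2, and Illumina-sequenced genotypes needed ≥10 input reads and ≥1 read per output.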

Variant	polymerase ribozyme fitness (log ratio)
C18G U90A	≤ -4.2
C18G U134G U151A	≤ -4.2
C18U A19C A40U C85G G100A C132G	≤ -4.2
C18U A20G C54A C93G A150C	≤ -4.2
C18U A21C A23C G48U G86A A89U	≤ -4.2
C18U A21C U55A	-0.649
C18U A21G A22U U31A U45G C87U U135A A137G	≤ -4.2
C18U A22G A49C G86A C131G	-4.14
C18U A22U G65C C85A	≤ -4.2
C18U A22U U53G C96A	-3.13
C18U A24G A29U C36A U45A C51U C96A A106G	≤ -4.2
C18U A24G U56G A89C C96U A106G C149G	≤ -4.2
C18U A24U G58A U61C G74U C96U G136A	≤ -4.2
C18U A28G A40C G50A A52U U77A C93U A98G G117A	≤ -4.2
C18U A28U G50C A66G C95G U135G	≤ -4.2
C18U A29U A30U G70C C149G	≤ -4.2
C18U A30C U56A U148G	≤ -4.2
C18U A30G G86A A142C	≤ -4.2
C18U A30U G65U G84U C105U	≤ -4.2
C18U A30U U55A G62A C72U G86U	≤ -4.2
C18U A37C G68A A107U C125A G140C	≤ -4.2
C18U A39G U53C	-3.19
C18U A39G U53C C57G C75A U139G A150C	≤ -4.2
C18U A39U G88C C95A A97G C125A	≤ -4.2

Variant	polymerase ribozyme fitness (log ratio)
C18U A40C C93A	-2.24
C18U A41G C51U A115C G140U	-3.82
C18U A47G A52U G68U C79A C93U C99A G141C A142G G143U	≤ -4.2
C18U A49U C57G A60C C96U A115U U135G	≤ -4.2
C18U A52C U90C G92U C99U G136C	≤ -4.2
C18U A60U C63A G84A U127A	≤ -4.2
C18U A106G G133U	≤ -4.2
C18U C36A A66G G81U C85U U101C	≤ -4.2
C18U C36A C95A C149U U151C	≤ -4.2
C18U C38U A39C G92U C103U	≤ -4.2
C18U C38U C87G C99U C105G	≤ -4.2
C18U C54G G70A G92A C125U G143A C149A	≤ -4.2
C18U C54G U111G	≤ -4.2
C18U C72U U78G G128U	≤ -4.2
C18U C75G U90C G92U C132U A150G	≤ -4.2
C18U C85U A106C U130A	≤ -4.2
C18U C87G	≤ -4.2
C18U C87G C99A A137C	≤ -4.2
C18U C131A	-2.6
C18U G25C G59U G71A U77G G94C C95U A122C U139G	≤ -4.2
C18U G34U G59C G68A G81A G141A	≤ -4.2
C18U G34U G70A C85U C87U A91C G117A	≤ -4.2
C18U G50C G59U C93U C95G U102G U135A	≤ -4.2
C18U G50C G88C C99U	≤ -4.2

Variant	polymerase ribozyme fitness (log ratio)
C18U G58A C75G C93U U144A	≤ -4.2
C18U G59U C76U C85U G88C C108U	≤ -4.2
C18U G65C C93U U148G	≤ -4.2
C18U G80U U148C	-3.99
C18U G83A	-0.637
C18U G88A G92A C132G U148A	≤ -4.2
C18U G88A G133C G141U	≤ -4.2
C18U G88C	≤ -4.2
C18U G94A	-1.37
C18U U31A G70C G80C C95G C96A A122G	≤ -4.2
C18U U31G A41G U56A C63U C95U C96G U144C	-2.53
C18U U33A A39U A52C C72U G94A C95U C132U	≤ -4.2
C18U U45A C57U G92A C93A	≤ -4.2
C18U U45A G62U U78G C85U G128U	≤ -4.2
C18U U55A	-1.49
C18U U55A G81C C93U C105U C118G	-1.85
C18U U56A C85A G124A U135G G136A	≤ -4.2
C18U U61G A91C C93G C96U C99U A147U	≤ -4.2
C18U U90G	≤ -4.2
A19C A20U G68A C79G	≤ -4.2
A19C A21C C35U G59U C75U	-1.16
A19C A21G C57A G58U C72U C85U C103U U134C	-0.327
A19C A22G C76G C93U C116U U148A	≤ -4.2
A19C A22G G81C G83C G84A G92A	≤ -4.2

Variant	polymerase ribozyme fitness (log ratio)
A19C A22U A30U C43U G136U U148C	≤ -4.2
A19C A22U G42U C75G C76A G94A A110U G133U G143U U146G	≤ -4.2
A19C A23U U53A	≤ -4.2
A19C A24C A29U A98G	≤ -4.2
A19C A24G G42U A52U G92U	≤ -4.2
A19C A26U C63U C103G	≤ -4.2
A19C A26U C96G U111A A120U U148G	≤ -4.2
A19C A28C	≤ -4.2
A19C A28C A73G C87U	≤ -4.2
A19C A29U A39U A60U C76U C95U U144A	≤ -4.2
A19C A29U A47G A89C C96G G141A G152U	≤ -4.2
A19C A29U U53A U101G G143C	≤ -4.2
A19C A30U G46U A60C C69A C85U C87A C96U C105U G143U U146C	≤ -4.2
A19C A39U G84C C93A U148A	≤ -4.2
A19C A39U U53G A89U U104G C108A G136A A138C U145A	≤ -4.2
A19C A41C C51U G58C A91U A110C G124U G140U	≤ -4.2
A19C A47G C79U C85A U90G A121C	≤ -4.2
A19C A47U G67A G68U G124A A150G	≤ -4.2
A19C A49G U55G C57G C93U U127G G136A	≤ -4.2
A19C A52G U53A A98U A110U	≤ -4.2
A19C A52G U53A U56A G88U C93G	≤ -4.2
A19C A60U G83A A97U A106G C132G A142C	≤ -4.2
A19C C27U A30C U53A C85A C99A U134C	≤ -4.2
A19C C32G C79U C93U A110C	≤ -4.2

Variant	polymerase ribozyme fitness (log ratio)
A19C C36A G59C A107U A142C	≤ -4.2
A19C C38A G59C A64C A113U G133U	≤ -4.2
A19C C51U A142C	-0.768
A19C C54G U56G C116A U135G A150G	≤ -4.2
A19C C54U	-0.474
A19C C54U G67U C85A	≤ -4.2
A19C C57A A119G G128A	-4.12
A19C C57U G86A	-0.316
A19C C69U A107U A137G	≤ -4.2
A19C C79G C87G G94C	≤ -4.2
A19C C85G G128C U146C	≤ -4.2
A19C C87G	≤ -4.2
A19C C87U U90G C99U G126U C131U A142G	≤ -4.2
A19C C96U A106G A120C	0.311
A19C C123G	0.921
A19C G34A G59U A91G G141A	≤ -4.2
A19C G34U G50C U56A G83C G124U G141C	≤ -4.2
A19C G42C C95U U145G	≤ -4.2
A19C G48U G50U C69U C85G A121C	≤ -4.2
A19C G58C U127G U145G	≤ -4.2
A19C G65C C69G C85U C87G U102G A121G G124A U139G	≤ -4.2
A19C G67C C85G C103A	≤ -4.2
A19C G68A U78A A106U G133U G140U	≤ -4.2
A19C G68C A73U U77G G92A	≤ -4.2

Variant	polymerase ribozyme fitness (log ratio)
A19C G83A G86A C95A U134G G143U	≤ -4.2
A19C G83U C87U	-0.445
A19C U31C A37U A41C G92C A138U	≤ -4.2
A19C U31C A52U C72U A91G C95G	≤ -4.2
A19C U31C U33A A49C C93U U134C	≤ -4.2
A19C U33G G74A C79G G94C U101C	≤ -4.2
A19C U44A A91G	≤ -4.2
A19C U53A C75U C87U A91C G92C C103A G143U	≤ -4.2
A19C U53A G100U C103G U130G	≤ -4.2
A19C U53A U55G A60G A73G G84A	≤ -4.2
A19C U55A C75A G84U U102C	≤ -4.2
A19C U56A C93U C129U U151G	≤ -4.2
A19C U56G C85G C118U A150C	≤ -4.2
A19C U109G	-0.641
A19G A21G A24C A26C C35U A47C U53G U56A A60C U61A C75G C93A U104G	≤ -4.2
A19G A21G C87U C108G A113U U130A	≤ -4.2
A19G A22C U55A G65U C85A G128U	≤ -4.2
A19G A22G U31G A41U U44A A60C G81A G83C G84A U146A	≤ -4.2
A19G A23C	≤ -4.2
A19G A24U U31C C35G U61G C75U G83A	≤ -4.2
A19G A26G C54U U56G C76U U127G G141U	≤ -4.2
A19G A26U U53G G124C U148C	≤ -4.2
A19G A28C U53A G74A C96U U102G G128U	≤ -4.2
A19G A29U A40U G59A C76G C95U C99U	≤ -4.2

Variant	polymerase ribozyme fitness (log ratio)
A19G A29U C76G G83U U90C A107G G128U	≤ -4.2
A19G A30C C32U A41C C54A U90C G94A	≤ -4.2
A19G A30G C38U G84U U90G C93A	≤ -4.2
A19G A30G G42C G50A C85U U109A A120G	≤ -4.2
A19G A30U C54U C79A G84U C116G C118G U144A	≤ -4.2
A19G A37U U101G	-2.14
A19G A40U C57A U61A G100U G136U G141C	≤ -4.2
A19G A41C G42C A49C U90C U127A	≤ -4.2
A19G A47C C57A C96U U101G C123U U145A	-0.877
A19G A47G G48A	-3.23
A19G A49G A52U C76A C129U C132U	≤ -4.2
A19G A73G C85A	-1.82
A19G A91G C95U C125U	-4.01
A19G A91U	≤ -4.2
A19G C27G C103A U134G U135G U145G	≤ -4.2
A19G C27U G50C C93G	≤ -4.2
A19G C32A G46C C54U G59C G94A C96U C123A A137C U139G	≤ -4.2
A19G C54G	-1.84
A19G G34C C85G A89U U139A A147U	≤ -4.2
A19G G42C C87G G128C	≤ -4.2
A19G G46C A107U A120C C129U	≤ -4.2
A19G G46U C51A G67C G80C A120U	≤ -4.2
A19G G50A	-2.14
